# Results as given in PubChem BioAssay AID540317 (National Center for Advancing Translational Sciences (NCATS), 2011).
# Values joined by “and” are separate entries in the source; they are usually repeats but may differ in a detail not shown here. Equal values may be shown once. In all, about 390,000 compounds went through this assay and about 2,200 (0.56%) were called active. The inconclusive results got no clear call from the source; some entries with a clear call stand among them for comparison. The call rests on the fitted dose curve; in most records, active means well fitted inhibition curve with a large enough effect; inconclusive means small, poorly fitted or top-dose-only effect; inactive means no such curve, though single readings can be large or run the other way. Potencies of inconclusive entries are doubtful fits and often do not repeat.
# Biological target: Chromobox protein homolog 1 (Homo sapiens) (UniProt P83916)
# Chain of UniProt P83916 (P83916 whole entry, looked up): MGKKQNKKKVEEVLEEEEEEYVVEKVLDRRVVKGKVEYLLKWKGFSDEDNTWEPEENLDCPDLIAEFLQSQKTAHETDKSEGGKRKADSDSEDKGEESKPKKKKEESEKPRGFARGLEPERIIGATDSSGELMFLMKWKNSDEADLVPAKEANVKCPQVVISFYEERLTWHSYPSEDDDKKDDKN
# Assay: HTS for Inhibitors of HP1-beta Chromodomain Interactions with Methylated Histone Tails; further: nearly all actives have a fitted effect of over 70% in size
# Details: AlphaScreen HP1-beta / biotin-H3K9me3 peptide binding; series mostly up to 114 µM; activity change, negative = inhibition: at the top concentration
# Procedure, shortened: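 AlphaScreen: HP1-beta (50 nM) preformed 30 min with biotin-H3(1-18)K9me3 peptide (50 nM) in PBS pH 7.4, 0.01% Tween-20. Compound added for 30 min at RT, then streptavidin donor/nickel chelate acceptor beads (10 ug/mL) for 30 min.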
# Potency means the concentration at half of the fitted maximal effect; tags describe the fitted curve by direction and shape.
SMILES,Potency,"activity change, negative = inhibition"
COc1cc(/C=N\NC(=O)c2ccc(Cl)cc2)ccc1Oc1ccc([N+](=O)[O-])cn1,"inconclusive: 89.1 µM [inhibitor, single point]",–
COC(=O)c1ccc(NCc2cc(O)ccc2O)cc1O,active: 56.2 µM,–
CC1CCN(C(=S)NC(=O)c2ccc(F)cc2)CC1,–,inactive: 2.3%
COc1ccc(C(=O)c2ccc(N3CCOCC3)c([N+](=O)[O-])c2)cc1,"inconclusive: 39.8 µM [inhibitor, partial curve]",–
COC(=O)c1cc2oc3ccccc3c2n1Cc1nc(-c2cccc(Cl)c2)oc1C,–,inactive: 61.5%
C=CCOc1ccc(CN(C)CC(=O)Nc2ccccc2[N+](=O)[O-])cc1,"inconclusive: 31.6 µM [inhibitor, partial curve]",–
COc1ccc(OC)c(NC(=O)Cc2c(C(=O)O)[nH]c3ccc(Cl)cc23)c1,"inconclusive: 79.4 µM [inhibitor, partial curve, poor fit]",–
CC(=O)Nc1nonc1-c1nnc(SCc2ccccc2C)n1C,–,inactive: 26.5%
Cc1ccc(CN2CCN(/N=C/c3ccccc3)CC2)cc1,"inconclusive: 50.1 µM [inhibitor, partial curve]",–
CCCCCCC(=O)N(O)C1CC(=O)N(c2ccc(Cl)cc2)C1=O (configuration not stated),active: 39.8 µM,–
CN1C/C(=C\c2ccc(N3CCOCC3)cc2)C(=O)/C(=C/c2ccc(N3CCOCC3)cc2)C1,"inconclusive: 50.1 µM [inhibitor, partial curve]",–
O=C(O)CCc1ccc(-c2ccc(Br)cc2)o1,–,inactive: -36.1%
COc1ccc(-c2n[nH]c(=S)n2-c2ccc3c(c2)OCCO3)cc1,"inconclusive: 22.4 µM [inhibitor, full curve]",–
CCCCCc1cc(=O)oc2c(C(CCN(CC)CC)c3ccc(N(C)C)cc3)c(OC)cc(OC)c12 (configuration not stated),"inconclusive: 28.2 µM [inhibitor, partial curve]",–
COc1cccc(/C(O)=C2/C(=O)C(=O)N(CCN(C)C)C2c2ccc(Br)cc2)c1 (configuration not stated),"inconclusive: 39.8 µM [inhibitor, single point]",–
Cc1ccc(NS(=O)(=O)c2ccc3[nH]c4c(c3c2)CCCC4)c(C)c1,"inconclusive: 44.7 µM [inhibitor, partial curve]",–
Cc1ccc(-c2nc3ccccn3c2Nc2c(C)cccc2C)o1,"inconclusive: 44.7 µM [inhibitor, partial curve, poor fit]",–
COc1ccc(NC(=O)C2C3C=CC4(CN(Cc5cccnc5)C(=O)C24)O3)c(OC)c1 (configuration not stated),–,inactive: 66.2%
BrC(=C\c1ccccc1)/C=N/N1CCN(Cc2ccccc2)CC1,"inconclusive: 20 µM [inhibitor, partial curve, poor fit]",–
COC(=O)c1ccccc1OCCCN(C)C,"inconclusive: 8.91 µM [inhibitor, partial curve, poor fit]",–
O=C(c1cccc(F)c1)N1CCN(Cc2ccc3c(c2)OCO3)CC1,"inconclusive: 56.2 µM [inhibitor, partial curve, poor fit]",–
S=C(NCc1cccnc1)Nc1cccc2ccccc12,–,inactive: 48.8%
O=C(/C=C/c1ccco1)NCCc1ccc(F)cc1,"inconclusive: 70.8 µM [inhibitor, single point]",–

SMILES,Potency,"activity change, negative = inhibition"
O=C(Nc1nnc(S(=O)(=O)N2CCCCCC2)s1)c1ccc(Br)cc1,"inconclusive: 12.6 µM [inhibitor, full curve]",–
CCOC(=O)c1c(Nc2cccc(O)c2)nnc(-c2ccccc2)c1-c1ccccc1,–,inactive: -19.6%
Cc1cc(C)c(Cn2c3ccccc3c3cnn(CC(=O)NCCc4ccccc4)c(=O)c32)c(C)c1,–,inactive: 57.2%
CCCc1ccc(Oc2cc(NN3CCCCC3)c([N+](=O)[O-])cc2[N+](=O)[O-])cc1,–,inactive: 3.92%
C(=N\Nc1nc(-c2ccccc2)cs1)/c1ccco1,"inconclusive: 20 µM [inhibitor, full curve, poor fit]",–
CC1CC(=S)Nc2ccccc2N1Cc1ccccc1 (configuration not stated),"inconclusive: 20 µM [inhibitor, full curve, poor fit]",–
COc1ccc2cc(C(=O)C3CCCN(Cc4cnc(C)s4)C3)ccc2c1 (configuration not stated),"inconclusive: 89.1 µM [inhibitor, partial curve, poor fit]",–
COc1ccc(C2/C(=C(/O)c3ccccc3)C(=O)C(=O)N2CCO)cc1 (configuration not stated),–,inactive: 11.2%
NS(=O)(=O)c1ccc(NC(=S)NCc2ccc(Cl)cc2)cc1,"inconclusive: 50.1 µM [inhibitor, partial curve, poor fit]",–
COc1cc(/C=C2\C(=N)N3N=C(S(C)(=O)=O)SC3=NC2=O)ccc1OCCOc1ccc(C)cc1,"inconclusive: 70.8 µM [inhibitor, partial curve]",–
CCC(=O)Nc1ccc(NC(=O)/C=C/c2ccc(Cl)cc2)cc1,"inconclusive: 39.8 µM [inhibitor, single point]",–
CCCN1C(=O)/C(=C/c2ccco2)SC1=Nc1ccc(OC)cc1,"inconclusive: 20 µM [inhibitor, partial curve, poor fit]",–
C=CCNC(=O)/C(C#N)=C/c1c(N2CCN(c3ccc(OC)cc3)CC2)nc2c(C)cccn2c1=O,"inconclusive: 31.6 µM [inhibitor, single point]",–
COc1ccccc1NC(=O)CCn1cnc2ccccc2c1=O,"inconclusive: 8.91 µM [inhibitor, partial curve, poor fit]",–
COc1ccccc1NC(=O)CCNS(=O)(=O)c1ccc2c(c1)CCN2C(C)=O,–,inactive: 29.8%
O=C(/C=C/c1ccc(Cl)cc1)NC(=S)Nc1ccc(N2CCOCC2)c(Cl)c1,"inconclusive: 8.91 µM [inhibitor, full curve]",–
CN(Cc1ccc(Br)cc1)CC(O)COc1cccc(Br)c1 (configuration not stated),"inconclusive: 56.2 µM [inhibitor, partial curve, poor fit]",–
COc1ccc(S(=O)(=O)N2CCN(Cc3cc(OC)c(OC)cc3OC)CC2)cc1,"inconclusive: 14.1 µM [inhibitor, full curve]",–
OCCN1CCN(C(=S)Nc2cccc(C(F)(F)F)c2)CC1,"inconclusive: 35.5 µM [inhibitor, partial curve] and inconclusive: 50.1 µM [inhibitor, partial curve, poor fit]",–
CCCCC(=O)c1ccc(OC(=O)c2ccc([N+](=O)[O-])cc2)cc1,"inconclusive: 11.2 µM [inhibitor, partial curve]",–
COc1ccc(-c2cc(C3CCN(Cc4ccc([N+](=O)[O-])cc4)CC3)[nH]n2)cc1,"inconclusive: 28.2 µM [inhibitor, partial curve, poor fit]",–
CCN(CC)c1ccc(Nc2cc3n(c(=O)n2)CCc2cc(OC)c(OC)cc2-3)cc1,"inconclusive: 39.8 µM [inhibitor, partial curve]",–
COCCCNC(=O)C1CCN(C(=O)c2cc3sccc3n2Cc2ccc(F)cc2)CC1,–,inactive: 21%

SMILES,Potency,"activity change, negative = inhibition"
C=CCNCCCOc1ccc(C(C)(C)c2ccccc2)cc1,"inconclusive: 14.1 µM [inhibitor, full curve, poor fit]",–
COc1cccc(N2CCN(C(=O)c3cccc(NC(=O)c4nsc5ccccc45)c3)CC2)c1,–,inactive: -2.73% [at 57 µM]
C/C(=N\N1CCN(Cc2ccc(Cl)cc2)CC1)c1ccc([N+](=O)[O-])cc1,"inconclusive: 22.4 µM [inhibitor, full curve]",–
Cn1ccnc1C(=O)C1CCCN(Cc2cn[nH]c2-c2ccc(-c3ccccc3)cc2)C1 (configuration not stated),"inconclusive: 79.4 µM [inhibitor, single point]",–
Clc1ncc(CN2CCN(c3ccccc3)CC2)s1,–,inactive: 24.2%
O=C(CCN1CCN(c2ccccc2)CC1)c1ccc(Br)cc1,–,inactive: 20.9%
CC1=NCC(C)c2c1[nH]c1ccccc21 (configuration not stated),"inconclusive: 50.1 µM [inhibitor, partial curve, poor fit]",–
Cc1ccc([N+](=O)[O-])cc1S(=O)(=O)NCCc1c(C)[nH]c2c(C)cccc12,"inconclusive: 35.5 µM [inhibitor, partial curve, poor fit]",–
COc1cc2cc(CCOC(=O)N3CCCCC3)oc(=O)c2cc1OC,"inconclusive: 39.8 µM [inhibitor, single point]",–
Cc1ccc(S(=O)(=O)N(CC(=O)NCc2ccncc2)C2CCCCC2)cc1,"inconclusive: 8.91 µM [inhibitor, single point]",–
COc1cc(/C=C2\SC(=O)N(CC(=O)Nc3ccc(C)cc3)C2=O)cc(Cl)c1OCC(=O)O,active: 14.1 µM,–
CC1(c2ccc([N+](=O)[O-])cc2)NC(=O)N(CC(=O)Nc2ccc(N3CCCCC3)cc2)C1=O (configuration not stated),"inconclusive: 70.8 µM [inhibitor, partial curve]",–
CC1CCCN(c2nc(NCc3ccco3)nc(N)c2[N+](=O)[O-])C1 (configuration not stated),"inconclusive: 50.1 µM [inhibitor, partial curve]",–
Cc1ccc(S(=O)(=O)N2CCC(C(=O)N(C)C3CCS(=O)(=O)C3)CC2)cc1 (configuration not stated),"inconclusive: 8.91 µM [inhibitor, single point]",–
COc1ccc(-c2nnc3n2N=C(C)CS3)cc1,"inconclusive: 28.2 µM [inhibitor, single point]",–
CCOC(=O)CSc1nc2ccc(NC(=O)c3ccc(F)cc3)cc2s1,–,inactive: 39.3%
CCC(Nc1nc(-c2ccccc2)nc2ccccc12)C(=O)O (configuration not stated),–,inactive: 48%
Cc1ccc(C)c(N2N=C(C(=O)Nc3ccccc3N3CCCC3)CCC2=O)c1,active: 50.1 µM,–
Nc1ccc(Cn2ccc3c4c(N)nc(N)nc4ccc32)cc1,active: 79.4 µM,–
CCn1ncc(C(=O)Nc2ccc([N+](=O)[O-])cc2OC)c1C,–,inactive: 37.6%
O=C1N=c2ccccc2=C1c1c(O)n(-c2cccc(F)c2)[nH]c1=O,"inconclusive: 44.7 µM [inhibitor, partial curve]",–
